Source: article PMC4336329 (PLoS ONE, 2015)
Screen size: about 310,000 compounds; about 14,000 (4.5%) showed an effect of 50% or more. The effect is printed as a negative number. This is one part of the list.

biological target: human ether-à-go-go-related gene (hERG) potassium channel (human, UniProt Q12809); test: primary screen, population patch clamp on CHO cells stably expressing hERG
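Note: peak tail current of the secondary pulse compared with the same well before compound.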

Sequence of human ether-à-go-go-related gene (hERG) potassium channel (Q12809 whole entry, looked up): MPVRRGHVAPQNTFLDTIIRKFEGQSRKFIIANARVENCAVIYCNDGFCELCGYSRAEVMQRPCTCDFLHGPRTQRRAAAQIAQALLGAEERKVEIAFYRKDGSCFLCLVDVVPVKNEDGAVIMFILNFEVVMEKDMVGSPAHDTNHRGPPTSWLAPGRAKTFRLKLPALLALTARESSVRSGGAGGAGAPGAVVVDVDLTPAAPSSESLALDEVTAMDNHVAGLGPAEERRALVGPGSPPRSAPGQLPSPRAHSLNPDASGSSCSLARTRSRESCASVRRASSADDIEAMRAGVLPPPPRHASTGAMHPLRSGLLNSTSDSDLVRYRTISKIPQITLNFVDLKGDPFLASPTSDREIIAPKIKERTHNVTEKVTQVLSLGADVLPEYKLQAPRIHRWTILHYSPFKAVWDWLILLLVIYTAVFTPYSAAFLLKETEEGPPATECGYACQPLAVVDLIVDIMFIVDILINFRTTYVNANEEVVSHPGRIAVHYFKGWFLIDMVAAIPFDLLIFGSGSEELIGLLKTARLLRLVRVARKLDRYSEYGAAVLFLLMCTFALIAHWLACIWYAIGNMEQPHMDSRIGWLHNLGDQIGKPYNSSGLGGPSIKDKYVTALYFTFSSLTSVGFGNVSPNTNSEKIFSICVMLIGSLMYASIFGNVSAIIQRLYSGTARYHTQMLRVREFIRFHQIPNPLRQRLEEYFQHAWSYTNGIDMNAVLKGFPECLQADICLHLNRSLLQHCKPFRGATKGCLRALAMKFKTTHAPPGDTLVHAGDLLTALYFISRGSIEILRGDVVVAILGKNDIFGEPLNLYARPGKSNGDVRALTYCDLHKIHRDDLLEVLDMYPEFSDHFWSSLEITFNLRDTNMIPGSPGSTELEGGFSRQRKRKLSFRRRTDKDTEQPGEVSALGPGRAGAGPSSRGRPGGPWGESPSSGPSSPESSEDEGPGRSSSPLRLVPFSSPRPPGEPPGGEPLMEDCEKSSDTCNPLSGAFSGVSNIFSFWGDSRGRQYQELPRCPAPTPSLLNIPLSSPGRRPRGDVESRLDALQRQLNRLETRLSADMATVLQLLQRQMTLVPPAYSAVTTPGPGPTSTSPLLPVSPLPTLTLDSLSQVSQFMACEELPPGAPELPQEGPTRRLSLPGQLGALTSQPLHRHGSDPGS

| Structure (SMILES) | hERG current change (%, negative = inhibition) at 10uM [%] |
| --- | --- |
| O=C(CC1CCCC1)Nc1ccc2c(c1)CCC2 | -7.45 |
| CC[C@@H](C)C(C(=O)N1CCN(C(=O)OC(C)(C)C)CC1)n1cc(-c2cn([C@@H](C)C(=O)N3CCN(C(=O)OC(C)(C)C)CC3)nn2)nn1 (stereo partly drawn) | 16.3 |
| O=S(=O)(Nc1nc2ccc(S(=O)(=O)N3CCCCC3)cc2s1)c1ccccc1 | -8.76 |
| O=C(NCCCNC(=O)C(F)(F)C(F)F)C(F)(F)C(F)F | 6.91 |
| COc1ccc(C(=O)NCCS(=O)(=O)NCc2ccc(F)cc2)cc1 | -35.6 |
| Cc1[nH]c2ccc(-c3n[nH]c(=S)n3Cc3ccccc3)cc2c1C | -7.46 |
| O=c1[nH]c(SCc2ccc(Cl)cc2)nc2[nH]ncc12 | 2.83 |
| Cc1ccc(S(=O)(=O)N(C)C)cc1NC(=O)c1cccs1 | 5.85 |
| Cn1nccc1C(=O)NC1CCCc2c1cnn2-c1ccc(F)cc1F (stereo not drawn) | 5.84 |
| NS(=O)(=O)c1ccc(NC(=O)CSc2nnc(Cc3cccs3)n2-c2ccccc2)cc1 | 7.57 |
| CNc1nc(C)c(C(=O)OCC(=O)OC)s1 | 12.8 |
| CCc1nc(SCC(=O)c2ccc3c(c2)OCCO3)c2ccccc2n1 | -7.92 |
| O=C(c1ccc(F)cc1)N1CCCC(C(=O)N2CCc3ccccc3C2)C1 (stereo not drawn) | -1.07 |
| CCCCCCCC#Cc1ccccc1/C=N/S(=O)c1ccc(C)cc1 (stereo not drawn) | -5.22 |
| CCN(CC)CCCN=Cc1c(O)n(-c2ccccc2C)c(=O)c2ccccc12 | -52.8 |
| COc1ccc(C(=O)Nc2ccccc2)cc1NC(=O)c1ccc([N+](=O)[O-])cc1 | -56.8 |
| Cc1nn(-c2ccccc2)nc1C(=O)OCC(=O)N1CCC(C)CC1 | -24.6 |
| COc1ccc(N(C(=O)Cc2cccs2)C2C=CS(=O)(=O)C2)cc1 (stereo not drawn) | -1.12 |
| O=C(C[n+]1cccc(/C=N/O)c1)N1CCCCCC1.[Cl-] | 21.9 |
| O=C(C1=C(O)C(=O)N(CCN2CCOCC2)C1c1ccc(F)cc1)c1cccs1 (stereo not drawn) | 18.6 |
| CCOC(=O)C(NC(C)=O)(OCc1ccccc1)C(F)(F)F (stereo not drawn) | 1.3 |

| Structure (SMILES) | hERG current change (%, negative = inhibition) at 10uM [%] |
| --- | --- |
| COc1cc(NC(=O)CN2CCN(CC(=O)Nc3ccccc3OC)CC2)cc(OC)c1 | 0.0651 |
| CC(=O)c1cccc(NC(=O)Nc2ccc(C)cc2)c1 | 0.791 |
| COc1ccc(C(=O)NNC(=O)c2cc3ccccc3cc2O)cc1 | 16.1 |
| COc1cccc(NC(=O)CCN2CCC(C(N)=O)CC2)c1 | 3.31 |
| CC(=O)Nn1cc2c(c1-c1ccccc1)c(=O)n(C)c(=O)n2C | 2.3 |
| COc1ccc(NC(=O)c2nc(S(=O)(=O)Cc3cccc(C)c3)ncc2Cl)c(OC)c1 | 22.4 |
| Cc1ccc(C(=O)OCC(=O)NCCN2C(=O)CSC2=O)cc1 | 3.87 |
| CCc1cc2c(=O)c(-c3nc4ccccc4n3C)c(C)oc2cc1OC(C)=O | 2.05 |
| COC(=O)[C@@H]1OC(=O)[C@H]2O[C@@]23[C@@]1(C)CC[C@@H]1[C@@]2(C)C=CC(=O)OC(C)(C)[C@@H]2CC(=O)[C@]13C | 29.3 |
| Brc1ccc(-c2ccc(/C=N/Nc3nncc(-c4ccccc4)n3)o2)cc1 | 19 |
| COc1cccc(NC(=O)c2cc(-c3ccncc3)nc3c(C)cc(C)cc23)c1 | 2.12 |
| COc1ccc(-n2c3c(cc(C(=O)Nc4cccc(C)n4)c2=O)C(=O)CC(C)(C)C3)cc1 | 8.15 |
| O=C(CSc1nc2[nH]ncc2c(=O)n1-c1ccccc1)c1ccc2c(c1)OCCO2 | -6.39 |
| Cc1ccc(NC(=O)CSc2nnc3ccccn23)cc1 | 7.56 |
| CNCCc1ccccn1.Cl | 7.88 |
| CCOC(=O)N1CCC(NC(=O)CCc2c(C)nc3nc(C)nn3c2C)CC1 | 2.61 |
| O=C(NCCCN1CCOCC1)C1CCC(=O)N1CCc1ccccc1 (stereo not drawn) | 7.85 |
| CNC(=O)c1sc(Nc2cc(C)ccc2C)nc1C | 4.83 |
| COC(=O)CCC(=O)NC(=S)Nc1ccc(S(=O)(=O)Nc2cc(OC)nc(OC)n2)cc1 | 22.5 |
| FC(F)(F)c1cnc2c(-c3ccc(Cl)cc3Cl)noc2c1 | 12.3 |
| Cc1cccc(NC(=O)Nc2ccc3c(c2)CCC3)c1 | 16.6 |

| Structure (SMILES) | hERG current change (%, negative = inhibition) at 10uM [%] |
| --- | --- |
| Cc1cc([N+](=O)[O-])ccc1NC(=O)Nc1ccc(F)cc1F | 19.2 |
| O=C(NCC1CC1)C1(C(F)(F)F)C/C(=C\Cc2ccccc2)CCCO1 (stereo not drawn) | 7.58 |
| COc1cnc(-c2ccccn2)nc1NC(C)C | 7.65 |
| Cc1cc(N2CCCCC2)n2nc(C)c(-c3ccccc3)c2n1 | 13.3 |
| C=CCn1c(SCC(=O)Nc2cccc(C(=O)OC)c2)nnc1C(C)NC(=O)c1cccs1 (stereo not drawn) | -29.9 |
| COc1ccc(C(C(=O)NC2CCCCC2)N(C(=O)CCl)c2ccc(Cl)cc2)cc1 (stereo not drawn) | -13.2 |
| Cc1ccc(/C=c2\sc3nc(-c4cccs4)nn3c2=O)o1 | -1.84 |
| COc1cc2c(cc1NC(=O)c1cc(-c3ccncc3)nc3ccc(C)cc13)oc1ccccc12 | -0.133 |
| O=C(Nc1nnc(SCC(=O)N2CCCCC2)s1)c1cccs1 | 4.86 |
| Cn1c(SCC(N)=O)nnc1C1CCN(S(=O)(=O)c2ccccc2C(F)(F)F)CC1 | 13.3 |
| CCCOc1ccc(C(=O)CCC(=O)OCC(=O)N2CC(=O)Nc3ccccc32)cc1 | 10.4 |
| [N-]=[N+]=N[C@@H](CCN1CC[C@H](O)CCC1=O)c1ccccc1 | 9.05 |
| Clc1ccc(OCc2nn[nH]n2)cc1 | 18 |
| CCN(CC)C(=O)Cn1cc(C(=O)C(=O)N2CC=C(c3ccccc3)CC2)c2ccccc21 | -3.24 |
| C/C(=N\NC(=O)c1cccc(S(=O)(=O)N2CCOCC2)c1)c1ccc(C)cc1 | -3.88 |
| CC1CCCCN1CCCNc1ccc(C(CC(N)=O)NC(=O)Cc2ccc(Cl)cc2)cc1[N+](=O)[O-] (stereo not drawn) | -10.5 |
| O=C(Nc1ccc(NS(=O)(=O)c2ccc([N+](=O)[O-])cc2)cc1)c1ccco1 | -18.2 |
| Cc1ccc(N2CC(C(=O)Nc3cc(C(F)(F)F)ccc3N3CCCC3)CC2=O)cc1 (stereo not drawn) | -7.04 |
| COc1ccc(Cl)cc1S(=O)(=O)N1CCC(C(=O)NCc2ccccn2)CC1 | -7.12 |
| Cc1ccc(NC(=O)CN(C)C(=O)c2ccc(COc3ccccc3)cc2)cc1 | -5.46 |
| COc1ccc2c(c1)[nH]c1c(=O)n(/N=C/C3C(C)C=C(C)CC3C)c(=O)[nH]c12 (stereo not drawn) | 15.8 |

| Structure (SMILES) | hERG current change (%, negative = inhibition) at 10uM [%] |
| --- | --- |
| CCOc1ccc(S(=O)(=O)N2CCN(c3ccc(C)cc3C)CC2)cc1 | -4.57 |
| Cc1nn(CC(=O)NCCc2ccc(Cl)cc2Cl)c(C)c1[N+](=O)[O-] | -21.5 |
| O=C(C1CCC1)N1CCc2cc(S(=O)(=O)NCc3cccnc3)ccc21 | -7.87 |
| Cc1ccc(NC(=O)NNC(=O)Cn2nc(-c3ccccc3)c(-c3ccccc3)c(C#N)c2=O)cc1 | 7.22 |
| O=C1NN(c2ccc(Br)cc2)C(=O)/C1=C\c1ccc(O)cc1O | 30.2 |
| CC(=O)N1C(O)CC(C)N1c1ccccc1 (stereo not drawn) | 14.3 |
| CCO[C@@H]1OC(C(=O)NC2CC2)=C[C@H](C2CCCCC2)[C@H]1CCCO | -22 |
| CCOc1ccc(/C=C/C(=O)C(C(N)=O)=C2SCCS2)cc1 | 11.3 |
| O=[N+]([O-])c1cc(S(=O)(=O)N2CCCC2)ccc1NN=C1CCCC1 | -11.1 |
| O=C(Nc1ccccc1SCC1CSc2nc3ccccc3c(=O)n21)c1ccccc1 (stereo not drawn) | -67.7 |
| COc1ccc(-c2cc(-c3cc(F)ccc3O)[nH]n2)cc1OC | 10.3 |
| CN(C(=O)c1ccc(NC(=O)Cc2cccc(NC(=O)C3CCN(C(=O)C4CCC4)CC3)c2)cc1)C1CCCC1 | 11 |
| Cc1c(N/C(=N/S(=O)(=O)c2ccc(F)cc2)c2ccccc2)c(=O)n(-c2ccccc2)n1C | 0.39 |
| O=C(NC1CCCC1)c1ccc(CS(=O)(=O)c2cccc(C(F)(F)F)c2)o1 | -24.3 |
| COc1ccc(C)cc1NC(=O)CSc1ccc(-c2sc(C)nc2C)nn1 | -6.48 |
| CS(=O)(=O)Cc1ccc(C(=O)NC2CCSc3ccccc32)cc1 (stereo not drawn) | -16.4 |
| Clc1cc(Cl)cc(C2=NC(Cc3ccccc3)CO2)c1 (stereo not drawn) | 16.9 |
| O=C(NCCOCc1ccccc1)C(c1ccccc1)c1ccccc1 | -9.69 |
| COc1ccc(-c2csc(NC(=O)CCn3cnc4ccccc4c3=O)n2)cc1OC | 0.239 |
| Cc1ccc(C)c(S(=O)(=O)N/N=C/c2ccc(N3CCOCC3)cc2)c1 | 6.74 |
| COc1cc(OC)cc(C(=O)NNC(=O)CN2C(=O)NC(C)(c3ccccc3)C2=O)c1 (stereo not drawn) | 22.9 |
